Assay results published in PubChem BioAssay (Tox21).
Several values for one entry are separate records, joined by “and”; a condition that tells them apart may be missing. Identical values can stand only once. Inconclusive results, whose numbers are uncertain, are shown with a selection of clear calls. Potencies of inconclusive entries are doubtful fits and often do not repeat. Activity calls are given as the source filed them. Calls follow the shape of the dose curve; as a rule, active = well fitted inhibition curve with a large enough effect in the repeat runs; inconclusive = weak or mixed curves; inactive = no such curve, though single readings can be large or run the other way.

Target: Cytochrome P450 2C19 (Homo sapiens) (UniProt P33261)
Sequence of UniProt P33261 (P33261 whole entry, looked up): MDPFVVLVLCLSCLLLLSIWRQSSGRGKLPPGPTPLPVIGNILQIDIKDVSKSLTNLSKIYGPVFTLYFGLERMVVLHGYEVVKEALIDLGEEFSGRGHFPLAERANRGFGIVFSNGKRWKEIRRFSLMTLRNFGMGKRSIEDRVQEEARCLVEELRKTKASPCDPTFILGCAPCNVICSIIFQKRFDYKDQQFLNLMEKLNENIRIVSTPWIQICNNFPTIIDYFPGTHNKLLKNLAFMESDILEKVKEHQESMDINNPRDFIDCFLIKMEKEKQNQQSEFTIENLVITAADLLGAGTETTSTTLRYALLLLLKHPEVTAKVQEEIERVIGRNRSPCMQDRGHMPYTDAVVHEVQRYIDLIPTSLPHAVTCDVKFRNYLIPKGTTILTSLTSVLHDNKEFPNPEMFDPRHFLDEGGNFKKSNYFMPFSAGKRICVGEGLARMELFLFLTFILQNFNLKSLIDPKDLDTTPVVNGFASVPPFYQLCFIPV
Test: Cytochrome P450 Family 2 Subfamily C Member 19 (CYP2C19) small molecule antagonists: luciferase reporter qHTS assay (AID 1671197); also: nearly all actives have a fitted effect of over 65% in size
Details: P450-Glo CYP2C19 enzyme, luciferin luminescence, 1 h; series mostly up to 115 µM
Source text: National Center for Advancing Translational Sciences [NCATS]
U.S. Environmental Protection Agency [EPA]
National Institutes of Environmental Health Sciences [NIEHS]
National Toxicology Program [NTP]
U.S. Food and Drug Administration [FDA]
Cytochrome P450 (CYP) enzymes are membrane-bound hemeproteins that play a key role in metabolism of drugs and xenobiotics. Evaluation of the effect of chemicals on CYP isozymes is useful to minimize the adverse drug reactions and toxicities in drug development process. Tox21 chemicals were tested for their effect on CYP enzyme activities by using P450-Glo (TM) screening systems (Promega Corporation, Madison, WI). These systems provide a luminescent method containing proluciferin substrates and are converted to luciferin products by CYP isozymes. The luciferin products formed are detected with a luciferin detection reagent, and the amount of light produced is proportional to CYP activity. P450-Glo (TM) CYP2C19 screening system (Catalog. No. V9880) was used to detect the compounds that interfere in CYP2C19 activity. The positive control compound used for CYP2C19 assay is ketoconazole (Sigma-Aldrich, St. Louis, MO).
Tox21 Assay Protocol Summary:
Two ul of enzyme-substrate mix was dispensed into medium binding white/solid 1536-well plates (Greiner Bio-One North America Inc., Monroe, NC) using a BioRaptr Flying Reagent Dispenser (FRD, Beckman Coulter, Brea, CA). Compounds dissolved in DMSO and positive control (ketoconazole) were transferred to the assay plates at 23 nl using a Pintool station (Wako, San Diego, CA). The assay plates were incubated at room temperature for 10 min. Then 2 ul of NADPH regeneration solution was added to each well of the assay plates using an FRD and incubated at 37C for 1 h. The reaction was stopped by adding 4 ul of detection reagent using an FRD and after 20 min incubation at room temperature the luminescence signal was measured using a ViewLux plate reader (Perkin Elmer, Shelton, CT). Data were expressed as relative luminescence units.
Potency is read from the fitted curve at half-maximal effect; tags tell the direction and shape of the fitted curve.

Structure (SMILES) | Potency
Nc1nc(F)nc2c1ncn2[C@@H]1O[C@H](CO)[C@@H](O)[C@@H]1O | inconclusive: 0.0009 µM [inhibitor]
CCCCCCCCc1ccc(S(=O)(=O)O)cc1 | inactive
Cc1onc(-c2c(Cl)cccc2Cl)c1C(=O)N[C@@H]1C(=O)N2[C@@H]1SC(C)(C)[C@@H]2C(=O)O | inconclusive: 8.71 µM [inhibitor, single point]
Cc1cscn1 | inactive
CC(=O)Nc1cccc(N)c1 | active: 57.2 µM
O=C(O)CNCC(=O)O | inconclusive: 4.29 µM [inhibitor, single point]
C=Cc1ccccc1C=C | inactive
c1ccc(COCc2ccccc2)cc1 | inconclusive: 74.1 µM [inhibitor, single point]
COC(C)(C)OC | active: 69 µM
Cc1ccc(Br)cc1 | inconclusive: 15.5 µM [inhibitor, full curve, poor fit]
Cc1ccc(C)cc1 | inconclusive: 3.18 µM [inhibitor, single point]
CCCCCCCCCCCCCCN(C)C | inconclusive: 21.5 µM [inhibitor, single point]
CC(C)(C)OC(=O)N1C[C@@H](F)C[C@H]1C(=O)O | inconclusive: 92.4 µM [inhibitor, single point]
COc1cnc(NS(=O)(=O)c2ccc(N)cc2)nc1 | inconclusive: 8.71 µM [inhibitor, single point]
CCCCOC(=O)c1ccccc1 | inconclusive: 89.4 µM [inhibitor, single point]
Cc1cc(C)c(S(=O)(=O)O)cc1N=Nc1cc(S(=O)(=O)O)c2ccccc2c1O | inconclusive: 89.4 µM [inhibitor, single point]
COc1ccc(C)cc1[N+](=O)[O-] | inconclusive: 90.7 µM [inhibitor, single point]
NC(=O)c1cnccn1 | inactive
CC(CC=O)c1ccccc1 (stereo not given) | active: 15.9 µM
C=CCOC(=O)COCCC(C)C | inconclusive: 87.8 µM [inhibitor, single point]

Structure (SMILES) | Potency
O=c1[nH]cnc2ccccc12 | inconclusive: 92.3 µM [inhibitor, single point]
O=C(O)c1ccc(O)cc1O | inconclusive: 89.8 µM [inhibitor, single point]
C/C=C(\C)C(=O)OCCC(C)CCC=C(C)C (stereo not given) | active: 20 µM
CC(CO)c1ccccc1 (stereo not given) | inactive
C#CC(C)(O)CC(C)C (stereo not given) | inactive
O=C(O)CCCc1c[nH]c2ccccc12 | inconclusive: 89.4 µM [inhibitor, single point]
CCCCCC/C=C/CCCCCCCC(=O)O | inconclusive: 31.8 µM [inhibitor, full curve]
CCc1cccc2c3c([nH]c12)C(CC)(CC(=O)O)OCC3 (stereo not given) | active: 39.8 µM and inconclusive: 43.6 µM [inhibitor, single point]
O=C(O)c1ccc(O)cc1 | inconclusive: 89.4 µM [inhibitor, single point]
O=C(O)c1cc(Cl)cc(Cl)c1O | inactive
CC(C)n1c(/C=C/[C@@H](O)C[C@@H](O)CC(=O)O)c(-c2ccc(F)cc2)c2ccccc21 | inconclusive: 79.6 µM [inhibitor, single point] and inactive
CCOC(=O)C(C)(C)C | inactive
CC/C=C/CCO | inactive
O[C@@H](CNC[C@H](O)[C@H]1CCc2cc(F)ccc2O1)[C@@H]1CCc2cc(F)ccc2O1 | inactive
CC(CCl)OP(=O)(OC(C)CCl)OC(C)CCl (stereo not given) | active: 35.7 µM and active: 21.1 µM
CCc1nn(CCCN2CCN(c3cccc(Cl)c3)CC2)c(=O)n1CCOc1ccccc1 | inconclusive: 38.9 µM [inhibitor, single point]
CCCCCCCCCCO[C@@H]1O[C@H](CO)[C@@H](O)[C@H](O)[C@H]1O | inconclusive: 89.4 µM [inhibitor, single point]
O=Cc1ccc([N+](=O)[O-])cc1 | inconclusive: 89.9 µM [inhibitor, single point]
CC(=O)Oc1ccc(C(C)=O)cc1 | inconclusive: 93 µM [inhibitor, single point]
C=C1C2CCC(C2)C1(C)C (stereo not given) | inactive
